Results as given in the RNAGym collection of RNA variant scans (doi:10.7554/elife.90254).
The source gives no read counts; variants with many changes may rest on few reads.

B1: LINE1-full (parent)
chain: UACGUAGGUGGUUUUCCCCUGAUAGUGCUAAGGGGGCCUGGAAGUUUGGACUGGGCAGAGCUCAACACAGCGUGGCAAAGUGGCUGUGGCUAGACUGCCUCUCUGGAUUCCUCGUCACUCAGCAGGGCAUCUCUGAGAGAAAUGCC

Variants of: B1
Test: self-cleavage, relative activity (ratio to wild type); higher = more cleavage; in vitro, sequencing; the parent is a self-cleaving ribozyme
For A22G U52C A69U, the self-cleavage was 0.05.
In the case of U23A A42G A69U G72A, the self-cleavage is reported as 0.08.
Variant A22G U39C A136G has a self-cleavage of 1.18.
In the case of A22G A43G A69U, the self-cleavage is reported as 0.06.
A22U U39A U52G U85A A140G gave a self-cleavage of 0.12.
With A22G U87C A136G the self-cleavage was 0.29.
With A22G A43C U91A U102C the self-cleavage was 0.77.
In the case of A22G G58A A94U U134A, the self-cleavage is reported as 0.02.
In the case of A22G U73C U108C, the self-cleavage is reported as 0.
Variant U23A A79G U115C has a self-cleavage of 0.8.
U23A A50G U108C showed a self-cleavage of 1.84.
U20G C90U U112A gave a self-cleavage of 0.17.
A22G A30G G58A U134G A136G showed a self-cleavage of 0.41.
A22U A78G A117U A136G gave a self-cleavage of 1.6.
A22G U29C A142G showed a self-cleavage of 0.35.
A22G A31U A79G A124G gave a self-cleavage of 0.4.
Variant A22G G88U A142G has a self-cleavage of 0.
In the case of A22U A50U A79G A124G, the self-cleavage is reported as 0.84.
For A22G A43U U109A, the self-cleavage was 0.61.
Variant A22G G88A C116U has a self-cleavage of 0.1.
A22G A30G C123U gave a self-cleavage of 0.61.
In the case of A22U A50G U73C U132C, the self-cleavage is reported as 0.71.
With A22U G55A U73C U109C the self-cleavage was 0.13.
G21A A64G A138G showed a self-cleavage of 0.2.
In the case of A22G A65G A141G, the self-cleavage is reported as 0.06.
A22C U62A U96C U130A gave a self-cleavage of 0.05.
Variant U20G U134C U143C has a self-cleavage of 1.34.
In the case of U20C U52A U130C, the self-cleavage is reported as 1.93.
Variant A22G A92G U115C A121U has a self-cleavage of 0.
A22U A67G A78G showed a self-cleavage of 0.57.
With A22G U26A A124G the self-cleavage was 0.45.
For A22G U46C A50G U96A U100C, the self-cleavage was 0.
For U20G U45C C98U, the self-cleavage was 0.46.
A22G U46C U81A gave a self-cleavage of 2.02.
Work on U23A A64G A67U A77G yielded a self-cleavage of 0.27.
For U20C U47C A124U, the self-cleavage was 1.98.
Work on U20C U52C A67G yielded a self-cleavage of 0.88.
U20C U85A U108C gave a self-cleavage of 0.16.
G21A G34C U102A showed a self-cleavage of 1.78.
For A22U U104A U112A A136G, the self-cleavage was 1.04.
Variant A22G U26A A43G A59U A77U U108C U143G has a self-cleavage of 0.
In the case of U23A A42G A136U, the self-cleavage is reported as 0.84.
A22G U26A A43G U87A A142G showed a self-cleavage of 0.06.
Work on A22G G33C U112C yielded a self-cleavage of 1.23.
Work on U20C U104C A140G yielded a self-cleavage of 1.28.
With A22G U96C A129U the self-cleavage was 0.1.
A22C C28G U112A showed a self-cleavage of 1.09.
In the case of A22G A57G U134A, the self-cleavage is reported as 0.74.
With A22G U91C U115A the self-cleavage was 0.38.
U23A U45G U87A U132C U134A showed a self-cleavage of 0.07.
Work on A22G U23C G80U U108C yielded a self-cleavage of 2.35.
With G21A A30G A79U the self-cleavage was 1.58.
U23A C113A A142U showed a self-cleavage of 0.39.
For A22U A79G A138G, the self-cleavage was 1.15.
For A22G U45A A124U, the self-cleavage was 1.08.
With A22G U87A U91A U112C A121G the self-cleavage was 0.39.
Work on G21U A31U A59U U62C U109A U143A yielded a self-cleavage of 0.19.
With U20C U81A U104G the self-cleavage was 2.02.
Variant A22U A121U U132C U134A has a self-cleavage of 0.88.
In the case of U20G U26A U102C A107G, the self-cleavage is reported as 1.02.
With A22C U134C A138U the self-cleavage was 1.76.
In the case of U23A U45C U62A U87C, the self-cleavage is reported as 0.
For U20C U52A A59G U73A, the self-cleavage was 0.11.
A22G A107G U119C gave a self-cleavage of 0.94.
Work on A22U U23C C120U C131U yielded a self-cleavage of 1.47.
With A22G A65G G97A the self-cleavage was 0.11.
In the case of A22G A78G G122U, the self-cleavage is reported as 0.56.
With U23A C90U U96A U115A the self-cleavage was 0.13.
For A22U G32A A67G, the self-cleavage was 0.76.
G21A A50G A141G showed a self-cleavage of 0.66.
Variant A22U U52A A64C has a self-cleavage of 0.44.
In the case of U20G U26G A42U A138G A142C, the self-cleavage is reported as 0.6.
For A22G A67G A107G, the self-cleavage was 0.
Variant A22G A50G U132C has a self-cleavage of 1.08.
A22U G54A A136G gave a self-cleavage of 0.9.
For G21U A50G A65C A67G, the self-cleavage was 0.
With G21A G105A A129U the self-cleavage was 1.75.
Work on G21A U119A A136G yielded a self-cleavage of 0.82.
U20G U85C G127U showed a self-cleavage of 0.29.
Work on U20C U73C U102A U108C A142G yielded a self-cleavage of 0.
Variant A22U A31G C84G A141G has a self-cleavage of 0.18.
For A22G U87C A117U A121G, the self-cleavage was 0.
A22U A42G U45C G72C showed a self-cleavage of 1.11.
Variant U20G A79G U81A has a self-cleavage of 1.33.
Variant U20C U73A U115C has a self-cleavage of 1.38.
A22G A94U A141G showed a self-cleavage of 0.18.
A22G U96C A121U A140G showed a self-cleavage of 0.17.
Variant A22C A59G U81C has a self-cleavage of 0.
For A22G A59G U87A, the self-cleavage was 0.06.
Variant U20C U47C A140G has a self-cleavage of 1.8.
Variant A22G A64G A79G has a self-cleavage of 0.
U20C U87A U130C A136G gave a self-cleavage of 0.1.
U20C U81A A124G showed a self-cleavage of 2.13.
Variant A22U G34C A43U U52C A67U has a self-cleavage of 0.21.
U20C U102C A107U A140G U143A gave a self-cleavage of 1.53.
With U20C U104C A141G the self-cleavage was 1.95.
A22G G60C G86A U132C showed a self-cleavage of 0.09.
With A22G U52A G80A U108C G114A the self-cleavage was 2.69.
With U20G U47A U109C U115A the self-cleavage was 1.11.
A22U C84U A121C gave a self-cleavage of 0.1.
Variant A22G U81C A140G has a self-cleavage of 0.66.
A22G A121C U134C showed a self-cleavage of 1.58.
For U20G U62A A64U U73A U96A, the self-cleavage was 0.05.
A22U U23A U132C gave a self-cleavage of 1.2.
A22G A65G U115A C128G gave a self-cleavage of 0.22.
In the case of A22G C37A U52A, the self-cleavage is reported as 0.
For A22U G35A A64U A92G, the self-cleavage was 0.05.
Work on A22G A65G U96A A121G yielded a self-cleavage of 0.
Variant A22G A43G U96A has a self-cleavage of 0.19.
U23A A65G A140G A141G gave a self-cleavage of 0.08.
Variant A22G U29C A69C U115C has a self-cleavage of 0.54.
In the case of A22G U91C U100C, the self-cleavage is reported as 0.
Work on A22G A50G C120A yielded a self-cleavage of 0.62.
A22G A59U U130C showed a self-cleavage of 0.27.
In the case of A22G U39C A140U, the self-cleavage is reported as 1.46.
For U23A U26A A142G, the self-cleavage was 0.88.
Variant G21U U39A U96C C99U has a self-cleavage of 0.07.
In the case of A22G A65G A107G, the self-cleavage is reported as 0.
With A22G A94U C99U the self-cleavage was 0.08.
A22G A50G U102C gave a self-cleavage of 2.42.
In the case of A22G G35C U112C A117G, the self-cleavage is reported as 0.71.
Work on A22G A67G A78G A142G yielded a self-cleavage of 0.
Variant A22G A43G U102A has a self-cleavage of 0.78.
A22G G32A A59G gave a self-cleavage of 0.11.
A22U U104G A142G gave a self-cleavage of 2.63.
A22G A59G U112C A142G showed a self-cleavage of 0.22.
In the case of A22U U23A C56U A69G U134C, the self-cleavage is reported as 0.06.
A22G A50G A79G showed a self-cleavage of 0.
With U23A A30U A69G A77G U96C A138G the self-cleavage was 0.
A22U G25A U45C C56G A69C A121U showed a self-cleavage of 0.03.
G21A A22U A78G gave a self-cleavage of 1.46.
With U20C U96A A136G the self-cleavage was 0.11.
A22U C28U U62C A129G A140G gave a self-cleavage of 0.05.
With A22G U46C U115A the self-cleavage was 1.99.
A22U A64U U87C U96C U132C showed a self-cleavage of 0.
U20C U115A U143C showed a self-cleavage of 1.57.
A22C U23A A31U U62C C116A A140G gave a self-cleavage of 0.11.
With G21A U39C A59U the self-cleavage was 0.66.
In the case of A22G A64G G72A, the self-cleavage is reported as 0.41.
In the case of U23A U29C A67U A77G, the self-cleavage is reported as 0.36.
In the case of A22G A30G U85G A136G, the self-cleavage is reported as 0.78.
With A22G A65G G74U U85G U96C the self-cleavage was 0.77.
For A22G A77U C145U, the self-cleavage was 0.65.
Work on A22U G35U U132A A142U yielded a self-cleavage of 1.56.
Work on U20G A121G A124G yielded a self-cleavage of 0.46.
Work on A22G A67G A78G C128U A140G yielded a self-cleavage of 0.49.
Work on A22U U81A C90U yielded a self-cleavage of 0.05.
A22G U29A A79G U134G gave a self-cleavage of 0.77.
For A22G U87A A94G U104C, the self-cleavage was 0.
Variant A22G A77G A92G A124U has a self-cleavage of 0.
A22G G32A A129G U134C U143C showed a self-cleavage of 0.17.
A22G U73A U115C A117U G126A gave a self-cleavage of 2.01.
In the case of A22G G105U U143A, the self-cleavage is reported as 1.54.
With A22G U45C A77G the self-cleavage was 1.02.
Work on A22G U47A U62C A92G C110U A117U yielded a self-cleavage of 0.07.
With U23A A129G A141G the self-cleavage was 1.55.
G21A U96C A136G gave a self-cleavage of 0.38.
A22G C28A U73A showed a self-cleavage of 0.83.
Variant U20C U73C U115A C120U has a self-cleavage of 2.02.
For A22U U45A G80A A107G U115A U130C, the self-cleavage was 2.99.
With A22U A24G U112C the self-cleavage was 0.9.
A22G A94G U102C showed a self-cleavage of 0.92.
Variant U20G A42G U73C C90U A107G U112C has a self-cleavage of 0.
Work on A22G A43G U81A A136U yielded a self-cleavage of 1.4.
With A22G A69G U85A U134C the self-cleavage was 0.
In the case of A22U A30G G49U, the self-cleavage is reported as 0.77.
With U20C U85A U104C the self-cleavage was 0.15.
